Experimental data: PubChem BioAssay AID504374 (National Center for Advancing Translational Sciences (NCATS), 2011)
The campaign covered roughly 1,500 compounds. About 100 (6.7%) were called active. Roughly 7% stayed inconclusive and do not appear here. Calls come from the whole dose curve; as a rule, active = well fitted inhibition curve with a large enough effect; inconclusive = small, poorly fitted or top-dose-only effect, or effect the other way; inactive = flat fitted curve, though single readings scatter. Some of the results follow.

molecular target: Runt-related transcription factor 1 (Homo sapiens) + Core-binding factor subunit beta (Homo sapiens) (UniProt Q01196+Q13951); experiment: qHTS Assay for Compounds Blocking the Interaction Between CBF-beta and RUNX1 for the Treatment of Acute Myeloid Leukemia: Hit Validation; settings: AlphaScreen CBFb-His/RUNX1-biotin binding; series mostly up to 59.8 µM; activity, negative = inhibition: at the top concentration; note: nearly all actives have a fitted effect of over 60% in size
Excerpt: NIH Chemical Genomics Center [NCGC]
NIH Molecular Libraries Probe Production centers Network [MLPCN]
Assay Submitter (PI): Paul Liu
Core Binding Factor (CBF) abnormalities are associated with 20-25% of all acute myeloid leukemias (AML), of which 5-10% are further sub classified as acute myelomonocytic leukemia with eosinophilia, also known as M4Eo in the FAB classification scheme. This subtype of leukemia is usually associated with chromosome 16 inversion (p13:q22). Chromosome 16 inversion results in formation of the fusion oncogene CBFB-MYH11, which encodes the fusion protein CBF-beta-SMMHC.
It has been hypothesized that the interference of CBF-beta and RUNX1 binding could have therapeutic implications for patients with CBF mediated leukemias. We developed a CBF-beta and RUNX1 binding assay in AlphaScreenTM format and optimized it for high throughput screening to search for inhibitors. The goal of this project is to screen MLPCN's compound collection (MLSMR) for identifying the inhibitors of the interaction between CBF-beta and RUNX1 proteins as research probes. If these probes work well in the animal models, the ultimate goal of this project is to development a new drug treatment for this disease.
This assay can not be used to assess how apparent inhibitors interfere with protein binding, and whether inhibitors specifically bind to either protein. Disruption of this protein-protein interaction, through any mechanism, is the intended target activity.
The present data set was run to confirm the activity of hits from the primary screen.
NCGC Assay Protocol Summary:
Step, Parameter, Description
(1) Reagent, 3 uL CBFb-His/RUNX1-biotin mix incubated together for 20 minutes at room temperature (30 nM each)
(2) Compound or control, 23 nL compound stock solution
(3) Incubation, 15 minutes at Room temperature
(4) Reagent, 1 uL 50 ng each of beads (Nickel beads and streptavidin beads)
(5) Incubation, 90 minutes at Room temperature
(6) Detection, Excitation=365 nm Emission=440 nm, Envision reader in AlphaScreenTM mode
Keywords: MLSMR, MLPCN, NIH Roadmap, qHTS, NCGC, Core binding factor, CBF, CBF-beta, Acute myeloid leukemia
% is set by controls: 0 for no effect and ±100 for the full control effect; potency is the fitted concentration of half-maximal effect.

Chain of UniProt Q01196 (Q01196 whole entry, looked up): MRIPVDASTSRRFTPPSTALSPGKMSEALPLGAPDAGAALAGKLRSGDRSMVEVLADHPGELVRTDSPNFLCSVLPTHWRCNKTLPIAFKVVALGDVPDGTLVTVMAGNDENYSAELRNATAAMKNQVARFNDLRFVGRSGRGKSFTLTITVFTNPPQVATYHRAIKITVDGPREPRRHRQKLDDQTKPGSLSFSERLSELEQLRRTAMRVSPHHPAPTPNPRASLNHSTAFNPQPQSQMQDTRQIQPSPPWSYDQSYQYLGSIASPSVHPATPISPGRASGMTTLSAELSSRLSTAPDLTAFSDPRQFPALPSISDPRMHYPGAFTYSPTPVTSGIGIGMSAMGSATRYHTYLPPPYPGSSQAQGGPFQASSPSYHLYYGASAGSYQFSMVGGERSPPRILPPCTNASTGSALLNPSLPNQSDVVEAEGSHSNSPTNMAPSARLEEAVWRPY
Chain of UniProt Q01196 (Q13951 whole entry, looked up): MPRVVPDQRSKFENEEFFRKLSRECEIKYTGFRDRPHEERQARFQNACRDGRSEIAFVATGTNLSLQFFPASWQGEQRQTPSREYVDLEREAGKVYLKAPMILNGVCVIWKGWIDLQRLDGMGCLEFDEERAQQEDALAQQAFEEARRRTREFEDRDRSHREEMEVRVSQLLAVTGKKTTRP

Row | Structure (SMILES) | activity, negative = inhibition | Potency
1 | COc1ccc2[nH]c(=O)c(CN(C(=O)C3CCCO3)c3ccc(C)c(C)c3)cc2c1 (stereo unspecified) | inactive: -5.53% | 
2 | COc1cc(C2C(C#N)=C(N)OC3=C2C(=O)CC(C)(C)C3)ccc1OCCN1CCOCC1 (stereo unspecified) | inactive: -3.79% | 
3 | Cc1ccc(-c2cc(-c3c(C)nn(C)c(=O)c3N)[nH]n2)cc1 | inactive: -3.07% | 
4 | O=S(=O)(c1cccc(F)c1)N1CCc2sccc2C1c1ccc(OC(F)(F)F)cc1 (stereo unspecified) | inactive: 3.84% | 
5 | O=C(Oc1cc(=O)oc2c1c(=O)n1c3c(cccc23)CC1)c1ccccc1 | inactive: -1.83% | 
6 | COc1ccc(/C=N/NC(=O)c2cnccn2)c(OC)c1OC | inactive: -4.33% | 
7 | CC1(C)C([N+](=O)[O-])C(c2ccc(F)cc2)NC(c2ccc(F)cc2)C1[N+](=O)[O-] (stereo unspecified) | inactive: -4.27% | 
8 | Cc1cc(C)c(NC(N)=S)c(C)c1 | inactive: -19.2% | 
9 | Cc1[nH]ncc1-c1ccccc1Cl | inactive: 2.43% | 
10 | O=C(Cc1ccccc1)Nc1c(Cl)ccc2nsnc12 | inactive: -0.353% | 
11 | O=S(=O)(Nc1nc(SCc2ccc(Cl)cc2)n[nH]1)c1ccc(F)cc1 | inactive: -18.6% | 
12 | COc1ccccc1/C=C/C=N/NC(=O)CCn1cnc2ccccc21 | inactive: -4.8% | 
13 | S=c1[nH]nc(-c2cccs2)n1C1CCCCC1 | inactive: 6.08% | 
14 | CN(C)CCCNc1cc(C(C)(C)C)nc2c(-c3ccc(Cl)cc3)cnn12 | inactive: -2.95% | 
15 | CC(=O)Oc1cc2cccc(OC(C)=O)c(=O)c2c(OC(C)=O)c1OC(C)=O |  | active: 1120 nM
16 | NC(=O)N/N=C/CCc1ccccc1 | inactive: 4.89% | 
17 | CCOC(=O)N1CCc2c(sc(NC(=O)CN(CC)CC)c2C#N)C1 | inactive: 1.73% | 
18 | CN(C(=O)Nc1ccccc1)n1cnc2ccccc2c1=O | inactive: 1.42% | 
19 | COc1ccc(/C(C)=N/NC(=O)CNC(=O)Cc2ccccc2)c(OC)c1 | inactive: -10.6% | 
20 | COc1c(/C=N/NC(=O)c2ccncc2)c(CCN(C)C(C)=O)cc2c1OCO2 | inactive: -1.26% | 
21 | CN1C(=O)N(c2nnc(C(C)(C)C)s2)C(=O)C1c1ccccc1 (stereo unspecified) | inactive: 2.28% | 
22 | CN1C(=CC=C2C=C(I)C(=O)C(I)=C2)C(C)(C)c2ccccc21 | inactive: 0.353% | 
23 | Cc1ccc(S(=O)(=O)NNC(=S)NC(C)(C)C)cc1 | inactive: 1.87% | 
24 | Brc1ccc2oc(-c3ccn[nH]3)cc2c1 | inactive: 4.3% | 

Row | Structure (SMILES) | activity, negative = inhibition | Potency
25 | Cc1cc(=O)[nH]c2c1c(C)nn2C(C)(C)C | inactive: -0.932% | 
26 | Nc1cc(N)nc(CS)n1 | inactive: 0.962% | 
27 | CC(=O)/C(N=Nc1ccc(-n2ccc(C(F)(F)F)n2)cc1)=C(\C)O | inactive: -3.71% | 
28 | CCCCC1C2C(=O)N(c3ccccc3)C(=O)C2ON1c1ccccc1 (stereo unspecified) | inactive: -4.55% | 
29 | Cc1c(-c2ccc(Cl)cc2)[n+](=O)c2c(n1[O-])CCCC2 | inactive: 3.49% | 
30 | O=C(O)c1nccnc1C(=O)Nc1ccc(Oc2c(Cl)cccc2Cl)nc1 | inactive: 0.138% | 
31 | Nc1nccc(/C=C/c2c(Cl)cccc2Cl)n1 | inactive: -9.01% | 
32 | COc1ccc(CCNC(=O)C(=O)NCC2CCNCC2)cc1OC | inactive: -3.78% | 
33 | N#Cc1cnn(-c2ccccc2)c1NC(=O)CN1CCOCC1 | inactive: 0.441% | 
34 | C=CCN=C1S/C(=C/c2ccc([N+](=O)[O-])cc2)C(=O)N1CC=C | inactive: -3.34% | 
35 | Cc1onc(-c2ccccc2)c1C(=O)c1ccccc1 | inactive: -4.83% | 
36 | O=S(=O)(c1ccc2nc(-c3ccco3)c(-c3ccco3)nc2c1)N1CCOCC1 |  | active: 5460 nM
37 | COc1ccc(/C=N/NC(=O)c2ccco2)cc1OCc1ccccc1 | inactive: -0.527% | 
38 | CC1CCN(C2CCN(C(=O)c3ccccc3F)CC2)CC1 | inactive: 2.74% | 
39 | COc1ccccc1NC(=O)OCC#CCOC(=O)Nc1ccccc1OC | inactive: 9.79% | 
40 | CCOC(=O)CNC(=O)c1cccnc1Oc1ccc(Cl)cc1 | inactive: -8.52% | 
41 | O=C(Nc1ccccc1F)Oc1cccc(OC(=O)Nc2ccccc2F)c1 | inactive: -1.24% | 
42 | O=C(O)c1nccnc1C(=O)Nc1ccc(S(=O)(=O)N2CCOCC2)cc1 | inactive: -6.89% | 
43 | O=C(Nc1ccccc1)Nc1ccc2ccccc2c1 | inactive: 8.42% | 
44 | Cc1ccccc1OCC(=O)Nc1nnc(C2CCCCC2)s1 | inactive: 0.0088% | 
45 | Cc1nnn(C23C[C@@H]4C[C@@H](CC(C(=O)N5CCN(c6ccccc6)CC5)(C4)C2)C3)n1 | inactive: -5.35% | 
46 | Cc1onc(-c2ccccc2)c1C(=O)NC(=S)NNC(=O)c1ccco1 | inactive: -9.63% | 
47 | Fc1ccc(-c2cc(-c3cccs3)cc(-c3ccccc3)n2)cc1 | inactive: -3.64% | 
48 | CC1=Nc2ccccc2N=C(NC(=O)CSC(=S)N2CCCCC2)C1c1ccccc1 (stereo unspecified) | inactive: -18.7% | 

Row | Structure (SMILES) | activity, negative = inhibition | Potency
49 | N#Cc1cnn(-c2ccccc2)c1NC(=O)CN1CCN(c2ccccc2)CC1 | inactive: -5.43% | 
50 | O=C(O)/C(=C\c1cn(-c2ccccc2)nc1-c1cccnc1)NC(=O)c1ccccc1 | inactive: -5.63% | 
51 | CCOC(=O)c1nnn2c1nc(N1CCN(C)CC1)c1ccccc12 | inactive: -4.29% | 
52 | O=C(c1cc(Cl)cc(Cl)c1)N1CCN(c2cc(C(F)(F)F)nc3ccccc23)CC1 | inactive: 3.39% | 
53 | O=C(COC(=O)c1cc(S(=O)(=O)N2CCOCC2)ccc1O)Nc1cc(S(=O)(=O)N2CCCC2)ccc1Cl | inactive: -3.65% | 
54 | CCOC(=O)N1CCc2c(sc3nc[nH]c(=O)c23)C1 | inactive: -4.17% | 
55 | C=CCNC(=S)Nc1c(C(=O)OC)[nH]c2cc(OC)ccc12 | inactive: -6.58% | 
56 | Cc1onc2c(=O)n(-c3ccccc3)nc(-c3ccccc3)c12 | inactive: -2.11% | 
57 | c1ccc(-c2ccc(C3=Nn4c(nnc4-c4cccs4)SC3)cc2)cc1 | inactive: -9.62% | 
58 | COc1ccc(CCNS(=O)(=O)c2cnc(Cl)c(Br)c2)cc1OC | inactive: -11.1% | 
59 | COc1ccc(C2=NOC(CNC(=O)c3ccccc3Br)C2)c(OC)c1 (stereo unspecified) | inactive: -1.57% | 
60 | CC1=C(O)C(=O)OC1c1c(Cl)cccc1Cl (stereo unspecified) | inactive: 9.32% | 
61 | Cc1ccc(F)cc1NC(=O)N1c2ccccc2NC(=O)CC1C (stereo unspecified) | inactive: 5.13% | 
62 | O=C(Nc1ccccc1)Nc1ccc(C(F)(F)F)cn1 | inactive: 7.38% | 
63 | c1ccc(-c2ccc(-c3ccccn3)nn2)nc1 |  | active: 2820 nM
64 | Cc1cc(C(=O)NNS(=O)(=O)c2ccc(C(C)(C)C)cc2)nn1C(C)(C)C | inactive: -4.44% | 
65 | CCc1cc2c3c(c1)C(C)CC(C)(C)N3C(=O)/C2=C1\SC(=O)NC1=O (stereo unspecified) | inactive: -2.37% | 
66 | C/C(=N\NC(=O)CCc1c(C)n[nH]c1C)c1ccc([N+](=O)[O-])cc1 | inactive: -9.56% | 
67 | COC(=O)Cc1[nH]c(=S)[nH]c1C(=O)OC | inactive: -0.692% | 
68 | COc1cc(OC)c(OC)cc1/C=C1\Oc2cc(OS(C)(=O)=O)ccc2C1=O | inactive: -9.97% | 
69 | CN(C)S(=O)(=O)Nc1cccc(Br)c1 | inactive: 0.119% | 
70 | O=C(CCl)N(CCCNC(=O)C(F)(F)F)c1ccc([N+](=O)[O-])cc1 | inactive: -3.69% | 
71 | O=C(CSc1nnc2n1CCCN2)c1ccccc1 | inactive: -13% | 
